Assay results published in PMC4336329 (PLoS ONE, 2015).
The campaign covered roughly 310,000 compounds. About 2,200 (0.71%) showed an effect of 50% or more. Effects have a minus sign here. This is one part of the list.

molecular target: human ether-à-go-go-related gene (hERG) potassium channel (human, UniProt Q12809); experiment: primary screen, population patch clamp on CHO cells stably expressing hERG
Sequence (Q12809 whole entry, looked up): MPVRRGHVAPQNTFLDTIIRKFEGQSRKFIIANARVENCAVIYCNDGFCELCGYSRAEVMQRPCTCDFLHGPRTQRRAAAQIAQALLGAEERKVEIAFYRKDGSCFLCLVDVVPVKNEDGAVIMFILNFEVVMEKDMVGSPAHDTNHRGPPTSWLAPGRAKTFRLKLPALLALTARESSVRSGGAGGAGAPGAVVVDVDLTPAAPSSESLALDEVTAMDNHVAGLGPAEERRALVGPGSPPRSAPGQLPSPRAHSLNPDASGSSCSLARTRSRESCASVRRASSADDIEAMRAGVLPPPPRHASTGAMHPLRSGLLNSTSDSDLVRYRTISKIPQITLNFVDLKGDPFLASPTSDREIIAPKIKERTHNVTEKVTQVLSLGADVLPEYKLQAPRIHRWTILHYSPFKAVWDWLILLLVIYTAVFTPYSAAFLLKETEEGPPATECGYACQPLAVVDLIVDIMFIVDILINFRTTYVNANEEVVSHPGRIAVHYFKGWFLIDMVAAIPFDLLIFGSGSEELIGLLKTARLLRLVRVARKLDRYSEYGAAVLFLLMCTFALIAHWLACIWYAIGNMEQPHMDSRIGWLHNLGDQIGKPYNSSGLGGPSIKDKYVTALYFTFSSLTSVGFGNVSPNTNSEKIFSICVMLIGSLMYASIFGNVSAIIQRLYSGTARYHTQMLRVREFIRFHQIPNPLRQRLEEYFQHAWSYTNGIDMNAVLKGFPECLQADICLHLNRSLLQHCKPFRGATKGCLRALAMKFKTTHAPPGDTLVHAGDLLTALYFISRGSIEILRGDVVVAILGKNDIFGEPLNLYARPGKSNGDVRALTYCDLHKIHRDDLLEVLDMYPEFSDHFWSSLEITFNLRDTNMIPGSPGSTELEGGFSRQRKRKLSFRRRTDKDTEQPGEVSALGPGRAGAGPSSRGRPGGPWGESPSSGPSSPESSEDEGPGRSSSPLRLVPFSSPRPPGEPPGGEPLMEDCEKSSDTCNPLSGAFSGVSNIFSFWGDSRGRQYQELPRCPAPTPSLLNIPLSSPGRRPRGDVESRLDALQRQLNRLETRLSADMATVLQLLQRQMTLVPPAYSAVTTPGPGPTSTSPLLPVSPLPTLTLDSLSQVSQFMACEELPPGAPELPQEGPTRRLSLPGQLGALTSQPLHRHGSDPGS

Row | Structure (SMILES) | hERG current change (%, negative = inhibition) at 1uM [%]
1 | O=C(CS(=O)CC(=O)NC12CC3CC(CC(C3)C1)C2)Nc1ccc(F)cc1 (centres unmarked) | 3.56
2 | COc1cccc(-n2c(Cc3cc(=O)[nH]c(=O)[nH]3)nnc2SCC(=O)N2CCCCC2)c1 | 8.43
3 | O=C(COC(=O)CCc1nc2ccccc2c(=O)[nH]1)NC(c1ccccc1)c1ccccc1 | 8.97
4 | COc1cccc(Nc2nc3ccc(C(=O)c4ccccc4)cc3n3cnnc23)c1 | 9.11
5 | O=C(O)C(=O)O.c1ccc(-c2cnc(SCCN3CCOCC3)n2CC2CCCO2)cc1 (centres unmarked) | 6.56
6 | COc1ccc(N2CCN(CCc3ccncc3)CC2)cc1 | 2.04
7 | O=C(CCNC(=O)c1ccccc1Cl)Nc1cccc(S(=O)(=O)N2CCCC2)c1 | 11
8 | COc1cccc(CNC(=O)C2CCCN(S(=O)(=O)c3c(C)n[nH]c3C)C2)c1 (centres unmarked) | 3.37
9 | CCOCCc1nnc(NC(=O)Cc2c(F)cccc2Cl)s1 | 5.3
10 | COc1ccc(CN2CCCC(C(=O)N3CCCC3)C2)c(OC)c1.O=C(O)C(=O)O (centres unmarked) | 8.35
11 | O=C(Nc1cccc(-c2cn3cccnc3n2)c1)c1ccc(Br)o1 | 6.03
12 | COCCCNS(=O)(=O)c1ccc2[nH]c(=O)[nH]c2c1 | -0.626
13 | O=C(Nc1ccc2oc(-c3cccc4ccccc34)nc2c1)c1ncn[nH]1 | 5.11
14 | CCOC(=O)C1CCCN(C(=O)c2ccc(C)c([N+](=O)[O-])c2)C1 (centres unmarked) | 9.1
15 | Cc1cc(NS(=O)(=O)c2ccc(NC(=O)C3CCCCC3)cc2)no1 | 16.4
16 | COc1cccc(C(=O)N/N=C(\C)CC(=O)Nc2ccc(N(C)C)cc2)c1 | 15.3
17 | COc1ccc(CCN2C(=O)c3ccccc3C2(O)c2ncc[nH]2)cc1OC (centres unmarked) | 9.94
18 | CSc1nc(C)nc2c1c(=O)n(C)c(=O)n2C | -4.06
19 | O=C(COC(=O)c1cccc(NS(=O)(=O)c2ccc(F)c(F)c2)c1)NC(=O)NC1CCCC1 | 10.9
20 | C=CCN1C(=O)CSc2ccc(C(=O)N3CCC4(CC3)OCCO4)cc21 | 4.55
21 | Cn1c(=O)[nH]c(=O)c2[nH]c(CN3CCN(C(=O)c4ccco4)CC3)nc21 | 2.64
22 | O=c1[nH]cc(N(CCO)CCO)c(=O)[nH]1 | 15.3

Row | Structure (SMILES) | hERG current change (%, negative = inhibition) at 1uM [%]
23 | O=C(O)CCC(=O)Nc1ccc(/C=C/C(=O)C2CC2)cc1 | 15.3
24 | Cc1c(NC(=O)C(C)OC(=O)c2cccc(S(=O)(=O)N3CCOCC3)c2)c(=O)n(-c2ccccc2)n1C (centres unmarked) | 2.19
25 | Cc1cc(NC(=O)C2CC(c3c(F)cccc3Cl)=NO2)n(-c2ccccc2)n1 (centres unmarked) | 7.8
26 | Cn1c(CCN2CCCCC2)nc2cc(NS(=O)(=O)c3ccc(Cl)cc3)ccc21 | -59.1
27 | Nc1c(C(=O)CSc2nnc(-c3ccccc3F)o2)c(=O)[nH]c(=O)n1C1CC1 | 16.3
28 | Cc1ccc(N2CCN(CC(O)COc3cccc(C)c3)CC2)cc1 (centres unmarked) | -0.983
29 | Cc1cccc[n+]1CCCCCCCCCC[n+]1ccccc1C.[Br-] | 20.8
30 | CC(C)NC(=O)NC(=O)COC(=O)/C=C/c1ccccc1[N+](=O)[O-] | 16.4
31 | Cc1cc(N2CCN(C)CC2)nc2ccc(NC(=O)c3ccc4c(c3)OCO4)cc12 | -40.4
32 | OC(CNCc1ccc(Cl)cc1)C(F)(F)F (centres unmarked) | 10.8
33 | O=C(c1ccccc1Cl)N(Cc1ccccc1F)N1C(=O)CCCC1=O | 12.4
34 | O=C(c1ccc(-c2nnc(Nc3cccc(Cl)c3)c3ccccc23)cc1)N1C[C@H]2C[C@H](C1)c1cccc(=O)n1C2 | 9.68
35 | CC(=O)c1cccc(NC(=O)C(C)N2CCc3ccccc3C2)c1 (centres unmarked) | 6.85
36 | CC(=O)N1CCN(c2ccc(Oc3ncnc4sccc34)cc2)CC1 | 10.7
37 | CCN(CC(=O)NCc1cccs1)S(=O)(=O)c1ccc([N+](=O)[O-])cc1 | -37
38 | COc1ccccc1NC(=O)Oc1ccc(C(C)=O)cc1 | 13.2
39 | O=c1[nH]c2ccc(NC(=S)Nc3ccccc3)cc2[nH]1 | 13.2
40 | CCc1ccc(-c2cc(C(F)(F)F)n3nc(C(=O)Nc4cnn(Cc5ccc(C)cc5)c4)cc3n2)s1 | -3.33
41 | Cc1ccc(CNC(=O)c2cccc(-n3cnnn3)c2)cc1 | -0.774
42 | COCCCNC(=O)c1cc(OC)c(OC)c(OC)c1 | 1.89
43 | CCCCNc1c([N+](=O)[O-])c(=O)n(C)c2ccccc12 | 9.26
44 | Cc1ccc(C)n1-c1cccc(S(=O)(=O)N2CCOCC2)c1 | 12.4

Row | Structure (SMILES) | hERG current change (%, negative = inhibition) at 1uM [%]
45 | CCNc1nc(NCC)n2c(SCC(=O)Nc3cc(OC)ccc3OC)nnc2n1 | 11.7
46 | O=C(Nc1ccc(F)cc1)c1nc[nH]c1C(=O)O | 18.5
47 | CCOc1ccc(N(CC(=O)NC(C)CC)S(C)(=O)=O)cc1 (centres unmarked) | -0.392
48 | COc1ccccc1N1CCN(Cc2nnnn2CCc2ccccc2)CC1.Cl | 10.7
49 | C/C(N)=C(/C#N)C(=O)CSc1nc2ccccc2c(=O)n1CCCO | 6.77
50 | COc1cc(NC(=O)COc2ccc(Br)cc2)ccc1NC(=O)C(C)C | 11.2
51 | CCCCCCNCc1cccc(Br)c1.Cl | 0.985
52 | C/C=C/c1ccc(OCCCNCC(C)O)c(OC)c1 (centres unmarked) | 0.175
53 | CCOc1ccc(N(CC(=O)Nc2ccc(C)cc2)S(=O)(=O)c2c(C)[nH]c(=O)[nH]c2=O)cc1 | 4.23
54 | Cc1cc(C)n(C2CCCCC2OC(=O)CCc2ccccc2)n1 (centres unmarked) | 10
55 | CCCc1cc(C(=O)NCc2ccc(OC)cc2)no1 | 11.8
56 | Cc1ccc(-n2c(SCc3cn4ccsc4n3)nc3ccccc3c2=O)cc1 | 6.91
57 | COc1ccc(C(=O)CSc2ccc(-c3ccccc3)nn2)cc1 | 10
58 | CCOc1ccc(-n2c(SCC(=O)Nc3cc(C)on3)nnc2-c2c[nH]c3ccccc23)cc1 | 4.06
59 | CCCCCC(=O)Nc1cc(S(=O)(=O)N2CCOCC2)ccc1Oc1ccc(OCC)cc1 | -12.1
60 | CC(C)(C)NCC(O)c1cc(O)cc(O)c1.O=S(=O)(O)O (centres unmarked) | 15.1
61 | Cc1ccc(S(=O)(=O)N2CCN(c3cc4c(cc3[N+](=O)[O-])n(C)c(=O)n4C)CC2)cc1 | -1.14
62 | COC(=O)c1ccc(NS(=O)(=O)c2c(C)[nH]c(C)c2C(=O)N2CCCC2)cc1 | 3.91
63 | CCN1CCN(CCNC(=O)c2ccc(CS(=O)(=O)c3c(Cl)cccc3Cl)o2)CC1 | 2.25
64 | Cc1ccc(NC(=S)Nc2ccc(F)cc2)cc1 | 7.78
65 | COc1cc(C(=O)NC(C)c2ccc(-n3ccnc3)cc2)cc(OC)c1C (centres unmarked) | -20.4
66 | CCC(=O)Nc1ccc(NC(=O)c2ccco2)c(OC)c1 | -1.62

Row | Structure (SMILES) | hERG current change (%, negative = inhibition) at 1uM [%]
67 | O=S(=O)(NCCCN1CCOCC1)c1ccc2c(c1)OCCO2 | 18.4
68 | CC(Oc1ncnc2ccccc12)C(=O)Nc1cccc(S(=O)(=O)N2CCOCC2)c1 (centres unmarked) | 7.85
69 | Cc1nn(-c2ccc([N+](=O)[O-])cc2)c2c1C(c1ccc(OC(F)F)cc1)N1C(=N2)C(=O)Nc2ccccc21 (centres unmarked) | 0.442
70 | O=C(NCc1ccc2c(c1)OCO2)c1cccc([N+](=O)[O-])c1 | 1.45
71 | Cc1nn(C)cc1CNC(=O)c1cnn2c1NC(c1ccc(Br)cc1)CC2C(F)(F)F (centres unmarked) | -3.44
72 | COc1cccc(/C=C/C(=O)Nc2cccc(C(C)=O)c2)c1OC | 12.6
73 | CCN(CC)S(=O)(=O)c1ccc(OC)c(NS(=O)(=O)c2cccc(C(=O)O)c2)c1 | 10.5
74 | COc1ccc(CCNC(=O)CSc2nn(-c3ccccc3)c(=S)s2)cc1OC | -3.26
75 | Cc1cc(=O)n2[nH]c(COc3ccccc3)nc2n1 | 0.74
76 | COc1ccc(CNC(=O)CSc2nnnn2-c2ccc(O)cc2)cc1 | 8.82
77 | COc1cc(OC)c(C2C(C#N)=C(N)Oc3cc(C)n(CCCN4CCOCC4)c(=O)c32)cc1OC (centres unmarked) | 1.24
78 | COc1ccc(Cn2c(-c3ccc(OC)cc3)nc3c(c(=O)c4ccccc4n3C)c2=O)cc1 | 1.62
79 | CC[N+](C)(C)CCN(Cc1ccc(Cl)cc1)c1ccccn1.[Br-] | -33.2
80 | CC1=N/C(=C\c2ccccc2Cl)C(=O)O1 | 13
81 | Cc1cc(O)c(C(C)C)cc1NC(=O)c1ccc(Cl)cc1 | 7.65
82 | CCCOC(=O)C1[C@H]2C(=O)N(CC3CCCO3)C[C@]23C=C[C@H]1O3 (some centres unmarked) | 7.11
83 | O=C(NCc1nc2ccccc2[nH]1)C1=C[C@@H](c2ccc(Br)cc2)C[C@@H](OCCCCO)O1 | -39.1
84 | COc1cc2c(cc1O)[C@@H]1Cc3cc(O)c(OC)cc3[C@H](C2)N1C | 17
85 | CCOC(=O)C(=Cc1c[nH]c2ccc(S(=O)(=O)N(C)C)cc12)C(=O)OCC | -1.19
86 | CS(=O)(=O)Nc1nnc(C2CCCC2)s1 | 18.5
